Data as given in PubChem BioAssay AID1240 (Sanford-Burnham Center for Chemical Genomics, 2008).
Among all 50,000 compounds or so, about 800 (1.6%) showed an effect of 50% or more. The list shows a part of the results.

target: Bcl-2-like protein 10 (Homo sapiens) (UniProt Q9HD36); assay: TR3 peptide-Bcl-B binding displacers, biochemical primary FP assay, phenotype converters (AID 1240); conditions: GST-Bcl-B / FITC-TR3 peptide fluorescence polarization; stronger effect = higher value; compound at 3.75 mg/L;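 note: 0% = Bcl-B with tracer peptide and DMSO and 100% = tracer peptide lacking Bcl-B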
Chain of UniProt Q9HD36 (Q9HD36 whole entry, looked up): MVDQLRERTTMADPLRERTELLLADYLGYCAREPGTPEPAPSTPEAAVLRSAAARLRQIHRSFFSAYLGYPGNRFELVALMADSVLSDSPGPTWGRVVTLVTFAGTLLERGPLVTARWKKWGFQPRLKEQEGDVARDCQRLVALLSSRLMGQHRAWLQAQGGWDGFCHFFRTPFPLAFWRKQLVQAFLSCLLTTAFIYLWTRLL

SMILES | displacement
Cc1cccc(-c2nc3sc4c(c3c(=O)o2)CCCCC4)c1 | -11.4%
O=C(/C=C/c1ccc(Cl)cc1)NCC1CCCO1 (stereo not drawn) | -2.4%
CCc1ccc(C2C(C(=O)OCCc3ccccc3)=C(C)NC3=C2C(=O)CCC3)cc1 (stereo not drawn) | -9%
Cc1cc2nc(-c3cc(NC(=O)COc4ccc([N+](=O)[O-])cc4)ccc3O)oc2cc1C | 0.2%
O=C(O)c1cccc2c(Br)ccc(C(=O)O)c12 | 0.1%
O=C(CSc1nnc(-c2ccco2)n1-c1ccccc1)CSc1nnc(-c2ccco2)n1-c1ccccc1 | 15.9%
CCOCCOC(=O)C1=C(C)N(C)C(=O)NC1c1ccc(OCc2ccccc2)cc1 (stereo not drawn) | 2.2%
C/C(=N/NC(=O)COc1cccc(Cl)c1)c1ccccc1O | 9.1%
O=C(/C=C/c1ccccc1)NCCSCc1ccccc1Cl | -2.7%
O=c1c2c(nc3cc(-c4cccs4)[nH]n13)CCCC2 | 20.5%
CCOc1ccc(NC(=S)NC(NC(=O)Cc2cccc3ccccc23)C(Cl)(Cl)Cl)cc1 (stereo not drawn) | 9.2%
Cc1ccc(OCC(=O)N/N=C\c2ccco2)cc1 | 7.8%
CCCCOC(=O)C1=C(C)NC2=C(C(=O)CCC2)C1c1cccc(C(F)(F)F)c1 (stereo not drawn) | -3.1%
CCOc1cc(C(=O)N2CCN(C)CC2)cc(OCC)c1OCC | 0.4%
O=[N+]([O-])c1ccc(N2CCCC2)cc1Sc1cccc2cccnc12 | 3.9%
CN(C)c1ccc(C(=O)N2CCN(c3ccc([N+](=O)[O-])cc3)CC2)cc1 | 11.9%
CCOC(=O)c1c(C)oc2ccc(NS(=O)(=O)c3cc(C)ccc3C)cc12 | -0.8%
CC(NC(=O)c1cccc(Cl)c1)c1ccccc1 (stereo not drawn) | -5.3%
COc1ccccc1C(=O)O/C(=C/c1nc2ccccc2n1C)c1ccccc1OC | 9.4%
COc1cccc(NC(=O)c2ccc(OC)c([N+](=O)[O-])c2)c1 | 1.1%
Cc1nc(-c2cccc([N+](=O)[O-])c2)cs1 | 17.5%
COc1ccc(CCN2C(=O)CC(Cc3ccccc3)C2=O)cc1OC (stereo not drawn) | 0.4%
COc1ccc(OC)c(/C=C2\C(=O)NN(c3ccc(Cl)c(Cl)c3)C2=O)c1 | 15%

SMILES | displacement
CCCc1nc2ccccc2n1CC(O)COc1ccc(I)cc1 (stereo not drawn) | -4.5%
O=C(/C=C/c1cc(Br)cs1)Nc1cccc2cccnc12 | 10.6%
COc1ccc(NC(=O)c2ccc(C3SCC(=O)N3Cc3ccccc3)cc2)cc1 (stereo not drawn) | -4%
CCC(=O)NC(=O)NC(Cc1ccccc1)Cc1ccccc1 | 2.2%
O=C(COc1nc2ccccc2s1)n1c2ccccc2c2ccccc21 | 12.7%
Cc1cccc(Cl)c1OCCCCn1ccnc1 | -1.4%
O=C(Nc1ccc(-c2ccc(Cl)cc2)cc1)c1sc2ccccc2c1Cl | 3%
Cc1ccc(-c2nc3ccc(Br)cc3c(C(=O)O)c2C)cc1 | -2%
c1ccc(CCCN2CCN(C3CCCC3)CC2)cc1 | -3.6%
O=C1NCC2=C1C(c1ccc(O)cc1)Nc1ccccc1N2 (stereo not drawn) | -8.3%
O=C(C(c1ccccc1)c1ccccc1)N1CCN(Cc2ccc(F)cc2)CC1 | -18.5%
C/C(CC(=O)N1CCCC1)=N\NC(=O)C(=O)Nc1ccccc1 | -7.7%
Cc1ccc(C2(c3ccc(C)o3)C(=O)Nc3ccccc32)o1 | 22%
C=CCCCC(=O)Nc1nc2ccc(OCC)cc2s1 | 1.7%
CCC1(C)CC(CC(=O)O)(c2ccc(OC)cc2)CCO1 (stereo not drawn) | -11.3%
COc1ccc(NS(=O)(=O)c2ccc(Br)cc2)cc1OC | 2.2%
O=[N+]([O-])c1ccc(Cl)c(C2N(c3ccccc3)CCN2c2ccccc2)c1 | -6.1%
COc1cc(/C=N/NC(=O)c2ccncc2)ccc1OC(=O)c1cc(OC)c(OC)c(OC)c1 | 10.8%
COc1ccc(C2Nc3ccccc3C(=O)N2c2ccccc2)cc1CN1C(=O)c2ccccc2C1=O (stereo not drawn) | -11.6%
O=C(O/N=C/c1ccc([N+](=O)[O-])cc1)c1cccs1 | 12.4%
CC(C)Oc1ccc(C(=O)N2CCCc3ccccc32)cc1 | -4.5%
O=C(Nc1ccccc1)Nc1nnc(COc2ccc(Cl)cc2)s1 | 15.6%
CN1CN=C2SC3(COC(c4cccc(Br)c4)OC3)C(=O)N2C1 (stereo not drawn) | 3.7%

SMILES | displacement
O=C(c1ccc(F)cc1)N1CCN(Cc2ccc3c(c2)OCO3)CC1 | -6.7%
CCN(CC)C1=NS(=O)(=O)c2ccccc21 | 13.6%
Cc1ccc(-c2nc3ccccn3c2NC(=O)c2ccc(Cl)cc2)cc1 | 8%
OC(CNCc1ccccc1)(c1ccccc1)c1ccc(Br)cc1 (stereo not drawn) | -1.2%
COc1cc(C2Nc3cc(C)ccc3NC3=C2C(=O)CC(C)(C)C3)ccc1O (stereo not drawn) | -24.1%
Brc1ccc(/C=N/N2CCN(Cc3cccc4ccccc34)CC2)s1 | -11%
CCOC(=O)c1nnn(-c2nonc2N)c1-c1ccccc1 | -0.3%
CC1(C)CC(=O)C=C(NCC2CCNCC2)C1 | -8.4%
Cc1ccc(S(=O)(=O)NCc2ccco2)cc1[N+](=O)[O-] | -8%
O=C(Nc1ccncc1)c1cc2nc(-c3cccs3)cc(C(F)(F)F)n2n1 | 3.7%
Cc1cc(C)cc(NC(=O)Cn2cc(C=O)c3ccccc32)c1 | 13.6%
O=C(NCCCc1ccccc1)C(F)(F)F | 85.1%
O=C(/C=C/c1ccc2c(c1)OCO2)Nc1ncccn1 | 11.2%
Cc1cc(C)c(C)c(OCCCN2CCCC2)c1 | 6.3%
Cc1cccc(C2=N/C(=C\c3ccccc3OS(=O)(=O)c3ccccc3)C(=O)O2)c1 | -2.2%
O=C(COC(=O)c1ccc(S(=O)(=O)NCc2ccco2)cc1)c1ccc(Cl)cc1 | -1.7%
O=C1S/C(=C/c2ccc(O)c(O)c2)C(=O)N1c1ccccc1 | -0.3%
Cc1cc(OCCN2CCCC2)ccc1Cl | -2.8%
Cc1ccc(/C=N/NC(=O)C2CC(=O)N(c3ccccc3)C2)cc1 (stereo not drawn) | -3.6%
COc1ccc(OC)c(/C=C/C(=O)Nc2cc(OC)ccc2OC)c1 | 3.8%
Cc1ccc(N2C(=O)NC(=O)/C(=C/c3cccc(F)c3)C2=O)cc1 | 3%
CCC(C)OC(=O)C1=C(C)NC2=C(C(=O)CCC2)C1c1ccc(OC)c(OCc2ccccc2)c1 (stereo not drawn) | 2.4%
COc1ccccc1CC1CC(=O)N(c2cccc(Cl)c2C)C1=O (stereo not drawn) | -1.7%

SMILES | displacement
Cc1ccc(NC(=O)n2ccc(C(=O)N3CCOCC3)n2)cc1 | 9.7%
Cc1ccc(C)c(NC(=S)Nc2ccc(F)cc2)c1 | -6%
C=CCNC(=O)C(=O)Nc1ccc(C)cc1 | 10.1%
Cc1nnc(Oc2ccc([N+](=O)[O-])cc2)c2ccccc12 | -12%
O=C(NCC1CCN(C(=O)c2ccc(Cl)c(Cl)c2)CC1)c1ccc(Cl)c(Cl)c1 | 3.8%
O=C1C(=Cc2ccc(Sc3ccccc3)o2)C(=O)c2ccccc21 | 163%
Cc1cccc(NC(=O)c2cc([N+](=O)[O-])ccc2Cl)c1Cl | -8.5%
Cc1cccc(NC(=O)CC2SC(N)=NC2=O)c1C (stereo not drawn) | -4.7%
Cc1ccc(C2(C)CC(C)(C)N(C(=O)C3CCCO3)c3ccccc32)cc1 (stereo not drawn) | 9.1%
O=C(NCc1ccc2c(c1)OCO2)C(Cl)Cl | -3.7%
CCOC(=O)Cc1nnc(Nc2ccc(C)cc2C)c2ccccc12 | 4.6%
COC(=O)c1ccccc1NC(=O)c1cc(Cl)ccc1Cl | 3.9%
Cc1ccc(S(=O)(=O)Oc2ccccc2/C=C2\SC(=S)NC2=O)cc1 | 5.2%
Cc1cccc(C)c1NC(=O)c1cc2c(C)nn(-c3ccccc3)c2s1 | -17%
CC(NC(=O)CSc1nc2sc3c(c2c(=O)n1-c1ccccc1)CCCC3)c1ccccc1 (stereo not drawn) | 8.1%
COc1ccc(CNC(=O)C(=O)NCc2ccc(Cl)cc2)cc1 | 13.2%
CCOC(=O)COc1cc(Br)c(C2Nc3ccc4ccccc4c3C3=C2C(=O)CC(C)(C)C3)cc1OC (stereo not drawn) | -8.4%
O=C(NC(NC(=S)Nc1ccc(Cl)cc1)C(Cl)(Cl)Cl)c1ccccc1F (stereo not drawn) | 10.3%
O=C(Nc1ccc(Cl)cc1)Nc1ccc(S(=O)(=O)N2CCc3ccccc32)cc1 | -5.3%
CC(=O)c1ccccc1NC(=O)c1ccccc1Br | -6.8%
O=C(O)C(Cc1ccccc1)N1C(=O)/C(=C/c2ccc(Br)cc2)SC1=S (stereo not drawn) | 11.6%
CC(=O)c1ccc(Oc2cc(-c3ccccc3)nc(C)n2)cc1 | -9.7%
Oc1cccc(Nc2nc(-c3ccccn3)cs2)c1 | 7.9%

SMILES | displacement
CCSc1nnc(NC(=O)C(C)(C)C)s1 | -5.7%
Cc1ccc(C)c(NC(=O)c2cncc(Br)c2)c1 | 9.7%
C=CCN(CC=C)C(=O)COc1ccc(Cl)cc1 | -5.1%
CC(=O)N(C1=C(N2CCOCC2)C(=O)c2ccccc2C1=O)c1ccccc1 | 2.9%
COC(=O)c1ccc(N2C(=O)C3C4C=CC(C4=C(c4ccccc4)c4ccccc4)C3C2=O)cc1 (stereo not drawn) | 4.4%
O=C(CSc1nc2ccccc2[nH]1)Nc1cc(Cl)ccc1Cl | 11.1%
CCOC(=O)c1ccc(NC(=S)NC(=O)c2ccco2)cc1 | 12.6%
CCOc1ccccc1NC(=O)C(=O)NCc1ccc(Cl)cc1 | 13.1%
COc1ccc(OCC(O)CN(C)S(=O)(=O)O)cc1 (stereo not drawn) | -6.7%
O=[N+]([O-])c1cccc(CN2CCN(Cc3cc(Br)ccc3O)CC2)c1 | 3%
Cc1ccc(CC(C)CC(=O)NCc2ccccc2)cc1 (stereo not drawn) | -8.4%
COc1cc(SC)ccc1C(=O)n1nnc2ccccc21 | 9.2%
CC(C)COc1ccc(C(=O)Nc2ccc(F)cc2)cc1 | -11.6%
CC1=NN(C(=O)c2ccc([N+](=O)[O-])cc2)C(O)(c2ccc(Cl)cc2)C1 (stereo not drawn) | 11.9%
Cc1cc(Br)ccc1NCN1C(=O)S/C(=C/c2ccc3c(c2)OCO3)C1=O | 33.3%
CCOc1ccc(N2C(=O)NC(=O)/C(=C\c3ccc(OCc4cccc(C(=O)O)c4)cc3)C2=O)cc1 | 12.6%
O=C(NC12CC3CC(CC(C3)C1)C2)c1ccccc1I | 1.7%
O=C1NC(=Nc2ccc(F)cc2)S/C1=C/c1ccccc1F | 11.9%
Nc1nnc(-c2ccccc2SCc2ccccc2)s1 | -11.3%
CCOC(=O)c1ccc(-n2c(C)cc(C=C3C(=O)c4ccccc4C3=O)c2C)cc1 | 11.9%
O=C1c2ccccc2C(=O)N1/N=C/c1c(O)ccc2ccccc12 | 18.6%
